# In a collection of fitness landscapes (doi:10.1016/j.celrep.2020.107928):
# In all, about 81,000 sequences were measured (“one-hybrid fitness for binding parS DNA”: median about -0.17, highest 2% from about 0.51 on). The list shows a part of the results.
# B1: Caulobacter ParB omega fusion; a variant is named by its letters at X, in order, B8GW30 (parent)
# chain: MESVVVGEPGMSEGRRGLGRGLSALLGEVDAAPAQAPGEQLGGSREAPIEILQRNPDQPRRTFREEDLEDLSNSIREKGVLQPILVRPSPDTAGEYQIVAGERAWRAAQRAGLKTVPIMVRELDDLAVLEIGIIENVQRADLNVLEEALSYKVLMEKFERTQENIAQTIGKSXSHVANXMRLLXLPDEVQSYLVSGELTAXHARAIAAAADPVALAKQIIEGGLSVRETEALARKAPNLSAGKSKGGRPPRVKDTDTQALESDLSSVLGLDVSIDHRGSTGTLTITYATLEQLDDLCNRLTRGI
# Variants of: B1
# Test: one-hybrid fitness for binding parS DNA (scaled: cognate 1, non-cognate 0); higher = stronger binding
# Conditions: with parS DNA site
# How it was run: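 Pre- and post-selection plasmids were Illumina-sequenced, three replicate libraries were pooled, and any variant with under 10 reads was removed. The libraries were Caulobacter ParB with four specificity codons randomised, selected in E. coli USO through a HIS3 reporter whose site is 19 bp from the promoter. Cells grew 48 hours at 37°C on M9 without histidine, with 0.1 mM IPTG and 5 mM 3-AT. Fitness is the log change in variant-to-wild-type read ratio, rescaled against cognate and non-cognate.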
row,Variant,one-hybrid fitness for binding parS DNA
1,TCLY,≤ 0.2
2,TMTR,≤ 0.2
3,AHFS,≤ 0.2
4,LYGY,≤ 0.2
5,TRRL,≤ 0.2
6,WVDS,≤ 0.2
7,AEPV,≤ 0.2
8,AFQC,≤ 0.2
9,FNTR,≤ 0.2
10,TSVK,≤ 0.2
11,RQCN,0.416
12,CFKS,≤ 0.2
13,AYAR,≤ 0.2
14,QMFY,≤ 0.2
15,WHYV,≤ 0.2
16,TRWG,≤ 0.2
17,HKRP,≤ 0.2
18,FMGT,≤ 0.2
19,RHCE,≤ 0.2
20,LYQC,≤ 0.2
21,KRYW,≤ 0.2
22,CKVS,≤ 0.2
23,CLYT,≤ 0.2
24,YFCV,≤ 0.2

row,Variant,one-hybrid fitness for binding parS DNA
1,NRDG,≤ 0.2
2,KQWT,≤ 0.2
3,LWWG,≤ 0.2
4,YTDG,≤ 0.2
5,RSYF,0.233
6,SVAP,≤ 0.2
7,GMCY,0.307
8,KPLC,≤ 0.2
9,FAKL,≤ 0.2
10,MAAA,≤ 0.2
11,TNNG,≤ 0.2
12,IFPP,≤ 0.2
13,RIAW,≤ 0.2
14,RWCA,0.317
15,PTTQ,≤ 0.2
16,WLPS,≤ 0.2
17,PMTC,≤ 0.2
18,NTGW,≤ 0.2
19,GRRY,≤ 0.2
20,KHNV,≤ 0.2
21,QTTI,≤ 0.2
22,HSTY,≤ 0.2
23,FTLS,≤ 0.2
24,SWSK,≤ 0.2

row,Variant,one-hybrid fitness for binding parS DNA
1,AIKT,≤ 0.2
2,QARV,≤ 0.2
3,RAKI,≤ 0.2
4,SSCL,≤ 0.2
5,APMV,≤ 0.2
6,QRFE,≤ 0.2
7,QMQT,≤ 0.2
8,SQCT,≤ 0.2
9,HCAT,≤ 0.2
10,NQLM,≤ 0.2
11,LHRR,≤ 0.2
12,DKKM,≤ 0.2
13,MQLC,≤ 0.2
14,HCRC,≤ 0.2
15,LKWF,0.268
16,NDRA,≤ 0.2
17,RQPL,≤ 0.2
18,NVTR,≤ 0.2
19,QRYF,≤ 0.2
20,YLNN,≤ 0.2
21,PIMV,≤ 0.2
22,SPLQ,≤ 0.2
23,LLPP,≤ 0.2
24,VLRI,≤ 0.2

row,Variant,one-hybrid fitness for binding parS DNA
1,TIVL,≤ 0.2
2,YLKC,≤ 0.2
3,AAYH,≤ 0.2
4,KSRL,≤ 0.2
5,APTN,≤ 0.2
6,HMKN,≤ 0.2
7,AGIG,≤ 0.2
8,EDQR,≤ 0.2
9,PKPW,≤ 0.2
10,ENER,≤ 0.2
11,DAMS,≤ 0.2
12,VQVL,≤ 0.2
13,PGPG,≤ 0.2
14,RDNL,≤ 0.2
15,KQNL,≤ 0.2
16,ICGA,≤ 0.2
17,GKQG,≤ 0.2
18,PVVS,≤ 0.2
19,QGRD,≤ 0.2
20,TVHG,≤ 0.2
21,AHWW,≤ 0.2
22,PIRC,≤ 0.2
23,PYYL,≤ 0.2
24,LARA,≤ 0.2

row,Variant,one-hybrid fitness for binding parS DNA
1,CFFG,≤ 0.2
2,FHMS,≤ 0.2
3,NRWS,≤ 0.2
4,ISII,≤ 0.2
5,RNEH,≤ 0.2
6,TPKV,≤ 0.2
7,DIDV,≤ 0.2
8,RVWE,≤ 0.2
9,KYAF,≤ 0.2
10,CLES,≤ 0.2
11,TWDR,≤ 0.2
12,PSLH,≤ 0.2
13,LREI,≤ 0.2
14,RHSV,≤ 0.2
15,PVNT,≤ 0.2
16,CGAL,≤ 0.2
17,KYGG,≤ 0.2
18,SSYR,≤ 0.2
19,MYIP,≤ 0.2
20,SPPC,≤ 0.2
21,NIQG,≤ 0.2
22,HLKC,≤ 0.2
23,QYTE,≤ 0.2
24,TRLA,≤ 0.2

row,Variant,one-hybrid fitness for binding parS DNA
1,TAAH,≤ 0.2
2,TITT,≤ 0.2
3,LWPL,≤ 0.2
4,FFPR,≤ 0.2
5,NNYQ,0.211
6,RWLE,≤ 0.2
7,QRMF,≤ 0.2
8,SSNK,≤ 0.2
9,ADRM,≤ 0.2
10,VMLI,≤ 0.2
11,RIVT,0.788
12,NVYN,≤ 0.2
13,NTYV,≤ 0.2
14,CPYA,≤ 0.2
15,LGGS,≤ 0.2
16,MLTV,≤ 0.2
17,KHVG,≤ 0.2
18,KCHT,≤ 0.2
19,HWLR,≤ 0.2
20,RFNY,0.444
21,KKLP,≤ 0.2
22,MTCP,≤ 0.2
23,YYAG,≤ 0.2
24,AMGL,≤ 0.2

row,Variant,one-hybrid fitness for binding parS DNA
1,CVWT,≤ 0.2
2,AASQ,≤ 0.2
3,YLAG,≤ 0.2
4,KSDG,≤ 0.2
5,DRFC,≤ 0.2
6,MIQG,≤ 0.2
7,DRNV,≤ 0.2
8,DASD,≤ 0.2
9,KRLR,≤ 0.2
10,KEKS,≤ 0.2
11,CAAV,≤ 0.2
12,KKTR,≤ 0.2
13,NFAT,≤ 0.2
14,TYEY,≤ 0.2
15,TCLL,≤ 0.2
16,RQFS,0.957
17,REIG,≤ 0.2
18,YPAH,≤ 0.2
19,NTTP,≤ 0.2
20,EMNG,≤ 0.2
21,NPAL,≤ 0.2
22,SYGS,≤ 0.2
23,HLNL,≤ 0.2
24,FGHS,≤ 0.2

row,Variant,one-hybrid fitness for binding parS DNA
1,SMNR,≤ 0.2
2,WPVT,≤ 0.2
3,NFAL,≤ 0.2
4,VAPD,≤ 0.2
5,IANP,≤ 0.2
6,AYVA,≤ 0.2
7,SKKS,≤ 0.2
8,LSCL,≤ 0.2
9,WSQR,≤ 0.2
10,GPKN,≤ 0.2
11,REIF,≤ 0.2
12,EIGE,≤ 0.2
13,RFQM,0.257
14,AFVS,≤ 0.2
15,KDYR,≤ 0.2
16,EARI,≤ 0.2
17,LSYW,≤ 0.2
18,GATY,≤ 0.2
19,PLMS,≤ 0.2
20,QIVS,≤ 0.2
21,LKMK,≤ 0.2
22,HCSC,≤ 0.2
23,KTIQ,≤ 0.2
24,DYAL,≤ 0.2

row,Variant,one-hybrid fitness for binding parS DNA
1,SAPS,≤ 0.2
2,PRDH,≤ 0.2
3,LPPP,≤ 0.2
4,DWTT,≤ 0.2
5,AHTT,≤ 0.2
6,EIAY,≤ 0.2
7,PYLS,≤ 0.2
8,VFIR,≤ 0.2
9,AWAM,≤ 0.2
10,FAEL,≤ 0.2
11,MRKR,≤ 0.2
12,GART,≤ 0.2
13,YNMR,≤ 0.2
14,DYTC,≤ 0.2
15,AVGE,≤ 0.2
16,NITC,≤ 0.2
17,LYKL,≤ 0.2
18,CENT,≤ 0.2
19,LQNR,≤ 0.2
20,RFQC,0.925
21,INEI,≤ 0.2
22,WESI,≤ 0.2
23,YTIN,0.217
24,GCMS,≤ 0.2

row,Variant,one-hybrid fitness for binding parS DNA
1,PMGH,≤ 0.2
2,PFTP,≤ 0.2
3,QTID,≤ 0.2
4,LSET,≤ 0.2
5,PPNV,≤ 0.2
6,AMPI,≤ 0.2
7,QRQQ,≤ 0.2
8,PCDS,≤ 0.2
9,QEDC,≤ 0.2
10,DAAR,≤ 0.2
11,TPVV,≤ 0.2
12,HRRM,≤ 0.2
13,HERF,≤ 0.2
14,RAHP,0.241
15,VQSY,≤ 0.2
16,KSLR,≤ 0.2
17,RMEC,0.878
18,HTMR,≤ 0.2
19,NIVQ,≤ 0.2
20,RFLD,≤ 0.2
21,GRRI,≤ 0.2
22,HRFV,≤ 0.2
23,THAC,≤ 0.2
24,PQWS,≤ 0.2

row,Variant,one-hybrid fitness for binding parS DNA
1,TQAD,≤ 0.2
2,RYPI,≤ 0.2
3,LIFD,≤ 0.2
4,APLG,≤ 0.2
5,KNIG,≤ 0.2
6,NEGA,≤ 0.2
7,LGVC,≤ 0.2
8,GAMY,≤ 0.2
9,NYAI,≤ 0.2
10,PGLI,≤ 0.2
11,VANL,≤ 0.2
12,PRAH,≤ 0.2
13,QPGW,≤ 0.2
14,EAIS,≤ 0.2
15,LQDR,≤ 0.2
16,YLKY,≤ 0.2
17,WETF,≤ 0.2
18,QTDY,≤ 0.2
19,KMKP,≤ 0.2
20,QTWN,≤ 0.2
21,LKIL,≤ 0.2
22,AKYY,≤ 0.2
23,LASN,≤ 0.2
24,CFWR,≤ 0.2

row,Variant,one-hybrid fitness for binding parS DNA
1,RFYG,0.899
2,TSHT,≤ 0.2
3,ENPG,≤ 0.2
4,VPLT,≤ 0.2
5,FTAD,≤ 0.2
6,FMNT,≤ 0.2
7,YPVW,≤ 0.2
8,QYPD,≤ 0.2
9,ELPT,≤ 0.2
10,CRSC,≤ 0.2
11,DFQR,≤ 0.2
12,SLVR,≤ 0.2
13,CCLA,≤ 0.2
14,QHTR,≤ 0.2
15,VFRV,≤ 0.2
16,HCPS,≤ 0.2
17,CTNR,≤ 0.2
18,RSTW,0.219
19,TCGA,≤ 0.2
20,CRLN,≤ 0.2
21,IKSY,≤ 0.2
22,YNLC,≤ 0.2
23,FMRR,≤ 0.2
24,QQLV,≤ 0.2

row,Variant,one-hybrid fitness for binding parS DNA
1,CYRY,≤ 0.2
2,HASF,≤ 0.2
3,IMET,≤ 0.2
4,QGCT,≤ 0.2
5,RSRM,0.365
6,LFSV,≤ 0.2
7,GISR,≤ 0.2
8,QTKF,≤ 0.2
9,PHLC,≤ 0.2
10,YCKR,≤ 0.2
11,MRMC,≤ 0.2
12,VYQG,≤ 0.2
13,SCSK,≤ 0.2
14,QEEM,≤ 0.2
15,TYAN,≤ 0.2
16,IQST,≤ 0.2
17,SNIT,≤ 0.2
18,DDTA,≤ 0.2
